The list shows a part of the results. At the low end of the ranking the order means little.
Biological target: SIX1 homeodomain (reference allele) (UniProt Q15475)
Test: universal protein binding microarray
Settings: Universal all-10-mer PBM (8x60K, AMADID 030236), 300 nM GST-tagged protein, Alexa Fluor 488 anti-GST; buffer, salt, pH and temperature not stated; high values mean tight binding; most listed sequences are background and not binding sites; double strand, one strand shown

| Sequence | binding signal |
| --- | --- |
| AAGCCTCG | -0.159 E-score |
| GACAAGCC | -0.17 E-score |
| GTGGGACA | -0.114 E-score |
| AGTTGCTC | -0.0738 E-score |
| ATCGAAAG | -0.00986 E-score |
| ATTCAGTC | -0.253 E-score |
| CCGAAGCG | -0.0645 E-score |
| ATGACAAG | 0.0631 E-score |
| ACCCAATA | 0.158 E-score |
| GAGTCCGC | -0.0457 E-score |
| AGTTCCGC | -0.173 E-score |
| GACTGGTA | 0.108 E-score |
| CACATGGC | -0.233 E-score |
| ATTGGAGC | -0.0555 E-score |
| CTAGTTGC | -0.181 E-score |
| ATGACATC | -0.166 E-score |
| GCAGATAA | 0.0799 E-score |
| AGTTAATC | 0.182 E-score |
| CGTGGAAC | -0.242 E-score |
| TAGGGAGA | 0.177 E-score |
| CTCACTTC | 0.0807 E-score |
| TAGTCTCA | 0.0193 E-score |
| CCGTACCC | 0.0343 E-score |
| AAGACTGG | -0.0946 E-score |
| TTGACCAA | -0.208 E-score |

| Sequence | binding signal |
| --- | --- |
| ACTAATTC | -0.0862 E-score |
| AATGTCCG | -0.125 E-score |
| ACCTTCGC | -0.0658 E-score |
| ACATAGCT | 0.0301 E-score |
| AAATACAA | -0.0286 E-score |
| GGCCTCCC | -0.119 E-score |
| AGCAACTA | -0.0228 E-score |
| ACGCTCAG | -0.0501 E-score |
| TCTTTGAA | -0.191 E-score |
| AATGTCCT | -0.0928 E-score |
| GGTTGATA | 0.384 E-score |
| ACGCAACC | -0.168 E-score |
| CCGCCTCG | -0.0523 E-score |
| TACAGTAA | 0.0323 E-score |
| AATTTCAA | -0.287 E-score |
| AGTGAACC | 0.088 E-score |
| CTATCGAG | 0.157 E-score |
| CTGTCAGA | 0.0621 E-score |
| ATGAAGTA | 0.019 E-score |
| ACCGAGTC | -0.245 E-score |
| CAGTCCAG | -0.125 E-score |
| CCTAGGAA | -0.116 E-score |
| AGTAATCA | 0.00702 E-score |
| AAGCGCGA | -0.085 E-score |
| CACAATTA | -0.0412 E-score |

| Sequence | binding signal |
| --- | --- |
| AGATGAAT | 0.0345 E-score |
| AGCATCCC | -0.0543 E-score |
| TCGTCAAA | 0.0558 E-score |
| AGTCATAC | -0.102 E-score |
| CGCGCTCC | -0.116 E-score |
| CGTCACAA | -0.152 E-score |
| CCTTTACC | -0.146 E-score |
| CGTCTCAA | 0.286 E-score |
| GAACCCAA | -0.0484 E-score |
| AGGTTTAA | 0.104 E-score |
| GAACGGTA | -0.05 E-score |
| GGTAGAGA | -0.0136 E-score |
| CCATTCCG | -0.212 E-score |
| AACGAAAT | -0.179 E-score |
| TAACCATA | 0.0355 E-score |
| GTCGCCTA | -0.101 E-score |
| AAAGACGT | -0.334 E-score |
| CACGGTGG | 0.154 E-score |
| AATATTTA | -0.0615 E-score |
| CACCTTAC | -0.0657 E-score |
| CTGACTAA | -0.221 E-score |
| TACGAAGA | 0.0765 E-score |
| CAAGTCCC | -0.205 E-score |
| AAATTCTA | -0.243 E-score |
| AATGAAGC | -0.221 E-score |

| Sequence | binding signal |
| --- | --- |
| CATCACTC | -0.0876 E-score |
| GAGGTTGC | -0.321 E-score |
| AGAAAGAC | -0.154 E-score |
| CTCCGTGC | -0.126 E-score |
| CGTATGGC | 0.0659 E-score |
| AAGTCTTG | -0.29 E-score |
| AAGATAGA | -0.0145 E-score |
| CAAGGGCG | -0.202 E-score |
| ATCGTGTG | 0.245 E-score |
| CCTCGCCG | -0.138 E-score |
| CGCCACCA | -0.211 E-score |
| CCAATTGG | 0.0227 E-score |
| GATTACCA | -0.154 E-score |
| GTTCTAGA | 0.0377 E-score |
| CTGACAAC | -0.17 E-score |
| CAGGTCGA | -0.0081 E-score |
| CTTGTCTA | -0.104 E-score |
| CTCCAAAC | 0.0451 E-score |
| CTCTACCA | -0.0845 E-score |
| GATCCAGA | 0.342 E-score |
| ACATTAGT | 0.00788 E-score |
| GCGTAATA | 0.0553 E-score |
| CTGCCGAA | -0.0253 E-score |
| CTTACCTA | -0.0542 E-score |
| GGTCAACA | -0.00404 E-score |

| Sequence | binding signal |
| --- | --- |
| CTGAGACC | 0.261 E-score |
| CTAGACGA | -0.0272 E-score |
| CCGCACGG | 0.0715 E-score |
| GACATTAC | -0.134 E-score |
| CATGTCCC | -0.193 E-score |
| CGGCCTAA | 0.0305 E-score |
| CAACGAAG | -0.141 E-score |
| ACCACTGA | -0.117 E-score |
| GAAACGAC | -0.0828 E-score |
| GGTATTCA | 0.3 E-score |
| ATGCCCCG | 0.0404 E-score |
| CCTAGAGA | 0.071 E-score |
| AGGTACAG | -0.24 E-score |
| CATCAGCC | -0.0792 E-score |
| AGACCTAC | -0.0447 E-score |
| CCTCTAGC | -0.191 E-score |
| CACTTACA | -0.00562 E-score |
| AAGATGCG | -0.0575 E-score |
| AATTTTTG | -0.252 E-score |
| GCCATGCA | -0.0515 E-score |
| ACTCCAGT | -0.0049 E-score |
| AATGGGTG | 0.0784 E-score |
| TCTGGCAA | -0.0452 E-score |
| ACATCGAG | -0.193 E-score |
| ATAGTTAA | -0.00717 E-score |

| Sequence | binding signal |
| --- | --- |
| ACTGAATA | 0.0353 E-score |
| ACAAGCAA | -0.179 E-score |
| CATGATGA | 0.121 E-score |
| GCGAGCTA | -0.0331 E-score |
| AAGGAAAC | -0.17 E-score |
| ACTAGATC | 0.181 E-score |
| AAGTTAGG | -0.119 E-score |
| TAGATGGA | 0.289 E-score |
| TAGTGCAA | -0.0179 E-score |
| CACGGAGC | -0.133 E-score |
| CTAGGAAA | -0.227 E-score |
| CAGCCCTC | -0.175 E-score |
| ACCTGCGG | 0.0263 E-score |
| AGTATCGG | 0.429 E-score |
| GACCGATA | 0.352 E-score |
| GAGTGGAA | -0.122 E-score |
| AGCCATGA | 0.0263 E-score |
| GAAACCGA | 0.117 E-score |
| TATATTGA | 0.258 E-score |
| CCCATTTC | -0.0945 E-score |
| GAGGCTAC | -0.125 E-score |
| GTGGACAC | 0.182 E-score |
| AGTCTGAG | -0.101 E-score |
| GACAGTAA | -0.0249 E-score |
| AGCCGTTA | -0.0413 E-score |

| Sequence | binding signal |
| --- | --- |
| AGTAACAA | -0.261 E-score |
| CGGCCTGA | -0.101 E-score |
| TAACATTA | -0.111 E-score |
| CAAGAGGG | 0.0235 E-score |
| CGGGGAGC | 0.0329 E-score |
| AGGCCCAC | -0.317 E-score |
| ACTGCACG | 0.0216 E-score |
| TACTTATA | 0.0256 E-score |
| ACTCTAAC | -0.0518 E-score |
| TAATTCGA | -0.223 E-score |
| AGCGAGTG | 0.027 E-score |
| AAGTTCTC | -0.146 E-score |
| CGCTAGGC | -0.274 E-score |
| GACTCTGC | -0.165 E-score |
| GCCAGTAA | 0.0101 E-score |
| GTTAGTAA | 0.0123 E-score |
| ATCCACGA | 0.154 E-score |
| CCAAGTGA | -0.096 E-score |
| CAGTGATA | 0.417 E-score |
| GAGTAAAA | 0.0918 E-score |
| GACCAGTA | 0.00707 E-score |
| TCACCGGA | 0.139 E-score |
| ACCAAATG | -0.0273 E-score |
| AGAATCGG | -0.00999 E-score |
| CTAGGACA | -0.00357 E-score |

| Sequence | binding signal |
| --- | --- |
| ACAGAAGT | -0.163 E-score |
| AGGGATAT | 0.45 E-score |
| CCGAACTA | -0.13 E-score |
| ACCCTGAT | 0.3 E-score |
| CTGTATTC | -0.0422 E-score |
| GTTCTAAA | -0.03 E-score |
| GCACTAGA | -0.162 E-score |
| ATGCAGAA | -0.126 E-score |
| CCACGACA | 0.0282 E-score |
| CATTAAAC | -0.0375 E-score |
| CTGGCCAA | -0.186 E-score |
| ACCTACCG | -0.145 E-score |
| ATTAGCTG | -0.15 E-score |
| AAAACGAT | 0.122 E-score |
| CGTCTCGA | 0.285 E-score |
| TAAATGGA | 0.104 E-score |
| AGGCCGGA | -0.0326 E-score |
| ACGGATAC | 0.454 E-score |
| GCATGCAA | 0.113 E-score |
| GGCGTAAA | -0.223 E-score |
| ATACAGCC | 0.225 E-score |
| GAAGTAAC | -0.171 E-score |
| CCGACAAA | -0.209 E-score |
| AGGGTCAG | -0.0947 E-score |
| GAAGCCAC | -0.119 E-score |

| Sequence | binding signal |
| --- | --- |
| AAACGGTT | -0.154 E-score |
| GTATGCGA | 0.225 E-score |
| CAGTAGCC | -0.263 E-score |
| CTACGACA | 0.0973 E-score |
| GGGGAAAC | -0.0202 E-score |
| GCGCCCAA | -0.154 E-score |
| CCTGGTTC | -0.0644 E-score |
| ACCACGTC | 0.0137 E-score |
| CGTCAGGC | -0.243 E-score |
| ACTTCTGG | -0.113 E-score |
| CAACGCTC | -0.172 E-score |
| ATTTTGAG | -0.0176 E-score |
| GAAAACCC | -0.098 E-score |
| ACCTAACC | -0.00816 E-score |
| CTTTTGTA | -0.116 E-score |
| CAGAATAC | 0.221 E-score |
| CAAAGTGG | -0.0695 E-score |
| TCACCCGA | 0.157 E-score |
| CTCGAAAA | -0.2 E-score |

Source: PMC10668032
